Here are results for 44 compounds from PMC4336329 (PLoS ONE, 2015).

The campaign covered roughly 310,000 compounds. About 2,200 (0.71%) showed an effect of 50% or more. The effect is printed as a negative number. The list shows a part of the results.

Sequence of human ether-à-go-go-related gene (hERG) potassium channel (Q12809 whole entry, looked up): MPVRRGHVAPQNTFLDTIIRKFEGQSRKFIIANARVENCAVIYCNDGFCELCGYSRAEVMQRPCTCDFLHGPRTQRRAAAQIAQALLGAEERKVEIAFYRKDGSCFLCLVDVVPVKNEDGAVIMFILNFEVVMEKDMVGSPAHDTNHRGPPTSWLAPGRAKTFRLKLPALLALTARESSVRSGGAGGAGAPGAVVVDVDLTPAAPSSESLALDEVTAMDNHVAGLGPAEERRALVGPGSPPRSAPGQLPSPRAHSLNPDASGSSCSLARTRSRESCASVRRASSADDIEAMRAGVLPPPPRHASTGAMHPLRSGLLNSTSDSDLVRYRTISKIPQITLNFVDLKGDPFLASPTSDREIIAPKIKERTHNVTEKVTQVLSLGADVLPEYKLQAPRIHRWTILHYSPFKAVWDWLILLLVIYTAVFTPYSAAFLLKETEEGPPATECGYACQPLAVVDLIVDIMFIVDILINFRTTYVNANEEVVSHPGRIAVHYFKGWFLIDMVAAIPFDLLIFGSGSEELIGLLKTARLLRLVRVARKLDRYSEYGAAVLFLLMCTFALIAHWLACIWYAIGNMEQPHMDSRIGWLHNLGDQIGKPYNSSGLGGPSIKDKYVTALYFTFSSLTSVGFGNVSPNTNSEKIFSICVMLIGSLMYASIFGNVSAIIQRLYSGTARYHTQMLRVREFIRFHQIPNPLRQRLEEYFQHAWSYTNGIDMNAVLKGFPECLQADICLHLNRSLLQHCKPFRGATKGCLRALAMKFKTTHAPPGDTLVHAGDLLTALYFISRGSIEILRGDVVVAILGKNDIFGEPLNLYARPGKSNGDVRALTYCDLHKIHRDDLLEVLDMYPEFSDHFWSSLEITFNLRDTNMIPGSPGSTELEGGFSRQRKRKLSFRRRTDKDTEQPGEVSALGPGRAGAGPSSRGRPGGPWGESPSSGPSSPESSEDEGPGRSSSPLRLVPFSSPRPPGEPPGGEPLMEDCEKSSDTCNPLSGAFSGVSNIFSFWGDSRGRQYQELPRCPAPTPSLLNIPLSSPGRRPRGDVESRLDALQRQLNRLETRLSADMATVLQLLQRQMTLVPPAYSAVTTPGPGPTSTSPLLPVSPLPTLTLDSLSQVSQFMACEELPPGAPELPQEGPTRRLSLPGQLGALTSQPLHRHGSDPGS

This assay has as its target human ether-à-go-go-related gene (hERG) potassium channel (human, UniProt Q12809). Put plainly: primary screen, population patch clamp on CHO cells stably expressing hERG.
With `CC(C)CCn1c(-c2nonc2N)nc2ccccc21`, the “hERG current change (%, negative = inhibition) at 1uM” value came out at 6.14%.

Regarding `O=C(O)C(Cc1ccccc1)Nc1ccc([N+](=O)[O-])cc1[N+](=O)[O-]` (centres unmarked), the “hERG current change (%, negative = inhibition) at 1uM” value is listed as 18.7%.

In the case of `COc1cc(CN2CCCCC2C(=O)Nc2ccc(Oc3ccccc3)nc2)ccc1O` (centres unmarked), the “hERG current change (%, negative = inhibition) at 1uM” value came to 12.6%.

Turning to `CCc1nnc(NS(=O)(=O)c2ccc(N=Cc3c(O)n(-c4ccccc4)c(=O)[nH]c3=O)cc2)s1`, the “hERG current change (%, negative = inhibition) at 1uM” value is given as 6.95%.

In the case of `CCOC(=O)Cc1c(C)nc2c(-c3ccc(Cl)cc3)cnn2c1C`, the “hERG current change (%, negative = inhibition) at 1uM” value amounted to 8.93%.

Take `Cc1sc2ncnc(N3CCC(C(=O)Nc4ccccc4C(C)(C)C)CC3)c2c1C`: the “hERG current change (%, negative = inhibition) at 1uM” value is -3.64%.

In the case of `CCN(CC)Cc1csc(C(N)=O)c1`, the “hERG current change (%, negative = inhibition) at 1uM” value stood at 18.1%.

With `Cc1cc(NC(=O)CSCC(=O)Nc2nc3ccc(F)cc3s2)no1`, the “hERG current change (%, negative = inhibition) at 1uM” value came out at 19.2%.

On to `CCOC(=O)CN1CC23C=CC(O2)C(C(=O)NCc2ccccc2OC)C3C1=O` (centres unmarked), for which the “hERG current change (%, negative = inhibition) at 1uM” value was -12.8%.

In the case of `COc1ccc(C(=O)Nc2ccnn2C2CCN(Cc3ccncc3)CC2)cc1`, the “hERG current change (%, negative = inhibition) at 1uM” value is given as -0.365%.

As for `O=C(Nc1ccc(N2CCOCC2)cc1)Nc1ccc2nc(-c3ccco3)c(-c3ccco3)nc2c1`, the “hERG current change (%, negative = inhibition) at 1uM” value is listed as -2.53%.

For `COc1ccc(-c2csc(NC(=O)CN3C(=O)NC4(CCCC4)C3=O)n2)cc1`, the “hERG current change (%, negative = inhibition) at 1uM” value amounted to 1.42%.

For the compound `CC(C)c1ccccc1NC(=O)COc1ccc(C(=O)NCCc2ccccc2)cc1`, the “hERG current change (%, negative = inhibition) at 1uM” value was 1.31%.

As to `Cc1cc(C)c(C#N)c(SCC(=O)c2cc(C)n(CCc3ccccc3)c2C)n1`, the “hERG current change (%, negative = inhibition) at 1uM” value worked out at 4.88%.

As for `O=C(Nc1nc2c(F)cc(F)cc2s1)c1ccc([N+](=O)[O-])o1`, the “hERG current change (%, negative = inhibition) at 1uM” value was 17%.

With `COc1ccc(Cl)cc1N1Cc2ccccc2C1`, the “hERG current change (%, negative = inhibition) at 1uM” value was 14.2%.

As for `CCOC(=O)C1=C(COC(=O)/C=C/c2cccc([N+](=O)[O-])c2)NC(=O)NC1C` (centres unmarked), the “hERG current change (%, negative = inhibition) at 1uM” value came out at 10.1%.

Consider `CCOC(=O)Nc1ccc2c(COC(=O)CN(C)S(=O)(=O)c3ccc(C)cc3)cc(=O)oc2c1`, for which the “hERG current change (%, negative = inhibition) at 1uM” value was -1.15%.

In the case of `CCCCn1nnnc1NCc1ccc(N2CCCC2)cc1`, the “hERG current change (%, negative = inhibition) at 1uM” value is given as -12.4%.

Take `COc1cccc(-c2ccc3ncnc(NCc4cccs4)c3c2)c1`: the “hERG current change (%, negative = inhibition) at 1uM” value is 13.1%.

As to `CCOc1ccccc1NC(=O)c1ccc2c(=O)n3c(nc2c1)CCCCC3`, the “hERG current change (%, negative = inhibition) at 1uM” value was determined as 1.18%.

Take `CC(=O)c1cc2c(cc1NC(=O)Cc1ccsc1)OCO2`: the “hERG current change (%, negative = inhibition) at 1uM” value was determined as 12%.

On to `CC1CC(C)CN(S(=O)(=O)c2ccc(NC(=O)[C@@H]3CCCN3C(=O)c3cccs3)cc2)C1` (some centres unmarked), for which the “hERG current change (%, negative = inhibition) at 1uM” value is given as 10.3%.

On to `COc1cccc(CNC(=O)CCC2CCCN(C(=O)c3cc(C4CC4)[nH]n3)C2)c1` (centres unmarked), for which the “hERG current change (%, negative = inhibition) at 1uM” value amounted to 10.6%.

For `O=C(COc1ccccc1)Nc1nc(-c2cccs2)cs1`, the “hERG current change (%, negative = inhibition) at 1uM” value is on record as 5%.

Turning to `O=C(NNC(=O)c1ccccc1-c1ccccc1C(=O)O)c1ccccc1`, the “hERG current change (%, negative = inhibition) at 1uM” value is on record as 15.6%.

As to `CC(C)C(=O)Nc1cccc(C(=O)Nc2nccs2)c1`, the “hERG current change (%, negative = inhibition) at 1uM” value was found to be 18.3%.

In the case of `CCCOc1ccc(C2CC(=O)Nc3cc(OC)c(OC)cc32)cc1` (centres unmarked), the “hERG current change (%, negative = inhibition) at 1uM” value came out at 12%.

On to `CN1CCN(NC(=O)NC2CCCCC2)CC1`, for which the “hERG current change (%, negative = inhibition) at 1uM” value is 10.6%.

Take `COc1ccc(CNC(=S)Nc2ccc(Br)cc2)cc1`: the “hERG current change (%, negative = inhibition) at 1uM” value was 10.9%.

In the case of `O=C1CSC(c2cccc(Cl)c2Cl)N1c1ccccn1` (centres unmarked), the “hERG current change (%, negative = inhibition) at 1uM” value stood at 7.63%.

On to `Nc1ccc(Nc2ccccc2N)cc1`, for which the “hERG current change (%, negative = inhibition) at 1uM” value came to 19.6%.

For `CC(=O)Nc1ccc(SCC(=O)OCC(=O)NC(=O)NC2CCCC2)cc1`, the “hERG current change (%, negative = inhibition) at 1uM” value is reported as 7.63%.

In the case of `CC1(C)NC(=O)N(CC(O)COc2ccc(-c3ccccc3)cc2)C1=O` (centres unmarked), the “hERG current change (%, negative = inhibition) at 1uM” value turned out to be 7.39%.

On to `O=C(CN1CCOCC1)Nc1nc2ccc(Br)cc2s1`, for which the “hERG current change (%, negative = inhibition) at 1uM” value is -24.5%.

In the case of `C/C(=N\NC(=O)c1ccc(Cn2cc([N+](=O)[O-])cn2)o1)c1cccc(NC(=O)C(C)C)c1`, the “hERG current change (%, negative = inhibition) at 1uM” value is 13.6%.

In the case of `O=C1c2cccc3cccc(c23)C(=O)N1c1ccc2ncccc2c1`, the “hERG current change (%, negative = inhibition) at 1uM” value came out at 15.4%.

Take `CC1(C)C[C@H]2C=C(C=O)[C@]3(C=O)C[C@]3(C)[C@H]2C1`: the “hERG current change (%, negative = inhibition) at 1uM” value was determined as 6.2%.

Consider `O=C(CN1C(=O)c2cccc3cccc1c23)NCc1cccnc1`, for which the “hERG current change (%, negative = inhibition) at 1uM” value is reported as 10.5%.

`CCOCC(=O)Nc1nc(-c2ccccc2)c(CC)s1`: the “hERG current change (%, negative = inhibition) at 1uM” value is -3.77%.

For the compound `O=C(NCc1cc(C(F)(F)F)ccc1F)C1CCC(=O)N(C2CC2)C1` (centres unmarked), the “hERG current change (%, negative = inhibition) at 1uM” value is given as 6.6%.

For `Cc1ccc(-c2n[nH]c(=S)n2/N=C/C=C/c2ccccc2[N+](=O)[O-])cc1`, the “hERG current change (%, negative = inhibition) at 1uM” value turned out to be 3.5%.

As for `Cc1cc(Cl)ccc1OCC(=O)NNC(=O)C1CSC2(C)CCC(=O)N12` (centres unmarked), the “hERG current change (%, negative = inhibition) at 1uM” value is on record as 2.3%.

Take `CCOc1cc(N2CCOCC2)c(OCC)cc1NC(=O)C1CC(=O)N(c2ccc(C)cc2)C1` (centres unmarked): the “hERG current change (%, negative = inhibition) at 1uM” value is -0.693%.
